Measurements taken from the supplement of paper PMC4996465.
Viability of KB3-1 and Nalm-6 cells after 48 h of drug alone (CellTiter-Glo), 11 doses over about 4.5 log units. % of DMSO wells, lower = more cell loss; AC50 from the fitted curve, lower = more potent. No active / inactive call. Nalm-6 was screened in two runs. AC50 is listed only for well-fitted inhibitory curves. KB3-1 is a HeLa-derived carcinoma line, Nalm-6 a B-cell precursor leukaemia line.

What was measured:
KB3-1 [1] = experiment: viability (% of DMSO control); higher = more viable cells
Protocol: (§1)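 Eleven-dose screen of the NCATS MIPE 3 library on cells without co-treatment; CellTiter-Glo after 48 h, as % of DMSO wells.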

Nalm-6 [2] = experiment: as above
Protocol: as §1

KB3-1 [3] = experiment: log AC50 of viability decrease (48 h) (log10 M); higher = less potent
Protocol: (§2)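 Eleven-dose screen of the NCATS MIPE 3 library on cells without co-treatment; CellTiter-Glo after 48 h. AC50 from the curve fit; only inhibitory curves of the better fit classes are listed.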

Nalm-6 [4] = experiment: as above
Protocol: as §2

Compound	viability (KB3-1 [1]; 0.00078 µM)	viability (KB3-1 [1]; 0.00234 µM)	viability (KB3-1 [1]; 0.00702 µM)	viability (KB3-1 [1]; 0.0211 µM)	viability (KB3-1 [1]; 0.0632 µM)	viability (KB3-1 [1]; 0.19 µM)	viability (KB3-1 [1]; 0.569 µM)	viability (KB3-1 [1]; 1.71 µM)	viability (KB3-1 [1]; 5.12 µM)	viability (KB3-1 [1]; 15.4 µM)	viability (KB3-1 [1]; 46.1 µM)	viability (Nalm-6 [2]; run: 1, 0.00078 µM)	viability (Nalm-6 [2]; run: 1, 0.00234 µM)	viability (Nalm-6 [2]; run: 1, 0.00702 µM)	viability (Nalm-6 [2]; run: 1, 0.0211 µM)	viability (Nalm-6 [2]; run: 1, 0.0632 µM)	viability (Nalm-6 [2]; run: 1, 0.19 µM)	viability (Nalm-6 [2]; run: 1, 0.569 µM)	viability (Nalm-6 [2]; run: 1, 1.71 µM)	viability (Nalm-6 [2]; run: 1, 5.12 µM)	viability (Nalm-6 [2]; run: 1, 15.4 µM)	viability (Nalm-6 [2]; run: 1, 46.1 µM)	viability (Nalm-6 [2]; run: 2, 0.00078 µM)	viability (Nalm-6 [2]; run: 2, 0.00234 µM)	viability (Nalm-6 [2]; run: 2, 0.00702 µM)	viability (Nalm-6 [2]; run: 2, 0.0211 µM)	viability (Nalm-6 [2]; run: 2, 0.0632 µM)	viability (Nalm-6 [2]; run: 2, 0.19 µM)	viability (Nalm-6 [2]; run: 2, 0.569 µM)	viability (Nalm-6 [2]; run: 2, 1.71 µM)	viability (Nalm-6 [2]; run: 2, 5.12 µM)	viability (Nalm-6 [2]; run: 2, 15.4 µM)	viability (Nalm-6 [2]; run: 2, 46.1 µM)	log AC50 of viability decrease (KB3-1 [3])	log AC50 of viability decrease (Nalm-6 [4]; run: 1)	log AC50 of viability decrease (Nalm-6 [4]; run: 2)
c1ccc2c(-c3cnn4cc(-c5ccc(N6CCNCC6)cc5)cnc34)ccnc2c1	105%	104%	102%	105%	103%	102%	99.5%	95.2%	85.3%	65.9%	0.333%	109%	109%	117%	117%	111%	106%	105%	92.4%	74.9%	2.25%	0.35%	104%	105%	104%	109%	105%	99.4%	97.1%	87.7%	84.9%	41.4%	1.01%	-4.73	-5.18	-4.83
CC(=O)Nc1ccc([C@H](C)C(=O)Nc2ncc(C(C)C)s2)cc1	94.1%	95.2%	94.2%	98.5%	96.4%	75.4%	65%	28.8%	20.3%	18.8%	12.2%	76.9%	85.6%	89.8%	93.2%	98.7%	75.3%	49.4%	12.3%	12.6%	14.3%	7.86%	96.9%	98.3%	103%	99.5%	99.3%	68.2%	35.1%	11.1%	13.9%	15.1%	8.48%	-6.18	-6.28	-6.53
CC(C)CC(=O)Nc1n[nH]c2c1CN(C(=O)C1CCN(C)CC1)C2(C)C	98.6%	99.2%	102%	94.7%	91.2%	76.2%	29%	31.1%	26.6%	24.2%	21.5%	86.5%	96.8%	87.7%	75.8%	56.6%	40.1%	17.1%	9.15%	20.9%	23.6%	16.3%	101%	101%	95.1%	83%	52.6%	36.7%	10.9%	6.68%	21.7%	22.1%	14.3%	-6.58	-7.13	-7.28
Cc1ccc(C(N)=O)cc1Nc1nccc(-c2cn(C(C)C)c3cnccc23)n1	96.2%	97.9%	94.6%	95.5%	93.2%	98.8%	102%	103%	60.3%	31.4%	14.7%	92%	108%	111%	99.4%	112%	122%	102%	97.3%	38.7%	2.1%	2.44%	102%	106%	106%	97%	109%	111%	103%	90.5%	13.4%	0.878%	2.86%	-5.13	-5.38	-5.58
CC1(C)OC/2=C(\[C@H](NCC3=CC=CC=C3)[C@@H]1O)C(=O)C4=CC=CC=C4C2=O	103%	110%	106%	110%	108%	106%	113%	110%	109%	47%	5.37%	128%	133%	129%	135%	130%	117%	116%	90.3%	24.1%	9.83%	8.46%	107%	112%	110%	111%	109%	107%	94.2%	82.4%	22.3%	5.63%	4.3%	-4.88	-5.63	-5.58
Cc1c(C(=O)Nc2cccc(C(F)(F)F)c2)cc(-c2ccccc2)n1CCCN1CCOCC1	102%	102%	109%	91.5%	96.2%	99.7%	94%	90.2%	90.5%	87.8%	45.4%	102%	104%	114%	96.1%	76.3%	72.6%	60.4%	57%	56.4%	32.9%	0.304%	102%	104%	104%	107%	100%	99.8%	99.1%	106%	111%	108%	2.41%	-4.63	-5.33	–
Cc1ccc(S(=O)(=O)Nc2cc(Cl)ccc2C(=O)Nc2nc(-c3ccccc3)cs2)cc1	98.7%	98.7%	99.2%	99.5%	100%	99%	91%	65.2%	44.7%	29.7%	30.2%	116%	114%	122%	120%	107%	114%	109%	86.9%	48.9%	8.22%	3.92%	107%	104%	112%	110%	100%	104%	92.4%	88%	59.6%	7.49%	2.56%	-5.68	-5.38	-5.23
Cc1cn2c(-c3cn[nH]c3)cnc2c(Nc2ccc(C(=O)N3CCNCC3)cc2F)n1	98.1%	104%	98.8%	104%	99.7%	102%	97.9%	98.3%	82.3%	62.8%	42%	98.3%	101%	107%	114%	104%	102%	120%	109%	102%	88.8%	38.7%	102%	112%	107%	105%	109%	102%	93.3%	98.1%	95.3%	78%	23.5%	-4.88	-4.68	-4.73
Cc1ccnc(NS(=O)(=O)c2ccc(NC(=O)Nc3ccc(S(=O)(=O)Nc4nccc(C)n4)cc3)cc2)n1	105%	108%	105%	103%	102%	101%	102%	100%	90.3%	89.9%	65.8%	112%	111%	104%	114%	101%	111%	108%	98.9%	105%	72%	36.2%	106%	107%	106%	106%	102%	101%	104%	101%	111%	76.3%	34.9%	-4.73	-4.78	-4.78
Cc1n[nH]c2ccc(-c3cncc(OC[C@@H](N)Cc4ccccc4)c3)cc12	100%	104%	105%	103%	104%	100%	81.8%	45.1%	14.3%	15.1%	2.73%	111%	106%	97.1%	101%	111%	108%	78.8%	44.4%	4.89%	1.19%	0.324%	108%	110%	106%	103%	110%	107%	72.8%	42.2%	2.15%	0.892%	-0.396%	-5.88	-5.88	-5.93
CCN1CCN(CC1)CC(=O)NC2=CC=C(C3=C2C4=C(S3)C=CC=C4)C5=C6O\C(=C/C(=O)C6=CC=C5)N7CCOCC7	106%	108%	94.9%	98.3%	90.8%	78.3%	65.6%	56.2%	45%	43.4%	14.8%	93.1%	88.2%	100%	86.9%	80.7%	77%	46.6%	27.2%	6.94%	1.61%	-0.424%	112%	96.9%	102%	106%	98.9%	81.6%	61.1%	37.4%	2.07%	1.02%	-0.162%	-5.78	-6.18	-6.03
CCOC\1=C(/C(=O)NC2=CC=C(OC3=C(Cl)C(=NC=C3)N)C(=C2)F)C(=O)N(\C=C1)C4=CC=C(F)C=C4	102%	106%	102%	99.2%	108%	98.2%	99.2%	102%	96.4%	91.1%	39.9%	116%	123%	119%	112%	123%	125%	109%	82.7%	79.4%	68%	32.9%	112%	110%	113%	110%	102%	101%	102%	91.6%	87.2%	71.9%	35.5%	-4.63	-5.23	-4.73
CN(C)CCCN\C1=C\2C(=O)N(C)C(=O)\N=C2N(C)C3=C1C=CC=C3	103%	102%	104%	105%	99.8%	98.3%	103%	92.7%	54.7%	43.4%	14.7%	111%	112%	109%	117%	108%	116%	124%	107%	76.9%	56.3%	19.6%	102%	102%	104%	107%	99.2%	102%	101%	101%	79.9%	13.1%	20.5%	-5.13	-4.93	-5.13
CN(C)CCN(C)C(=O)c1ccc(NC(=O)Nc2ccc(-c3nc(N4CCOCC4)c4ccn(CC(F)(F)F)c4n3)cc2)cc1	101%	102%	90.7%	76.6%	49.5%	42.5%	41.3%	41.1%	41.1%	42.4%	0.677%	120%	110%	105%	95.1%	77.6%	63.6%	61.4%	46.3%	40.2%	15.3%	-0.551%	110%	110%	106%	102%	90.1%	68.7%	64.8%	52.3%	21.7%	6.32%	0.402%	-7.58	-5.83	-5.83
